Experimental data: PubChem BioAssay AID624173 (National Center for Advancing Translational Sciences (NCATS), 2012)
The campaign covered roughly 410,000 compounds. About 490 (0.12%) were called active. The shares of active, inactive and inconclusive entries below differ from those in the screen. Calls come from the whole dose curve; as a rule, active = well fitted inhibition curve with a large enough effect; inconclusive = small, poorly fitted or top-dose-only effect; inactive = flat fitted curve, though single readings scatter. A potency beside an inconclusive call is a rough fit, not a confirmed value.
Note: nearly all actives have a fitted effect of over 50% in size.
Potency is the fitted concentration of half-maximal effect; tags give direction and shape of the fitted curve.

Each compound was assayed against pyruvate kinase (Trypanosoma brucei) (UniProt Q57TT1) (assay: qHTS of Trypanosoma Brucei Inhibitors). Conditions: TbPYK enzyme, Kinase-Glo Plus ATP luminescence, 45 min; series mostly up to 76.8 µM.
Summary of the method: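 Readout: single end-point luminescence (Kinase-Glo Plus, 10 min). Reaction conditions were TbPYK/substrate plus 130 uM ADP, 45 min at RT, pH 7.2 TEA buffer. No-enzyme wells served as controls, and data were normalized before concentration-response fitting.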
`O=C(Nc1ccc2nc(SCC(=O)N3CCCC3)sc2c1)c1ccccc1F` was tested, and the Potency was “inactive”. In the case of `O=C(Nc1ccccc1)Nc1ccccc1`, the Potency is reported as inconclusive: 28.2 µM [inhibitor, partial curve, poor fit]. In the case of `CCN(c1ccccc1)S(=O)(=O)c1ccc(N2CCN(c3ccc(O)cc3)CC2)nc1`, the Potency is reported as inconclusive: 22.4 µM [inhibitor, partial curve, poor fit]. For `COc1cccc(C(=O)c2cc3ccc(O)cc3oc2=O)c1`, the Potency was inconclusive: 25.1 µM [inhibitor, partial curve, poor fit]. For `O=C(Nc1ccccc1C(=O)OCC(=O)c1c[nH]c2ccccc12)c1ccco1`, the Potency was “inactive”. `CCn1c(-c2cc(-c3ccccc3OC)nc3ccccc23)n[nH]c1=S` was tested, and the Potency was inconclusive: 11.2 µM [inhibitor, partial curve]. For `CC(=O)Nc1ccc(NC(=O)CSc2nnc(C3CC3)n2-c2ccccc2)cc1`, the Potency was inconclusive: 15.8 µM [inhibitor, partial curve, poor fit]. In the case of `Cc1cc(C)c(SSc2nnnn2-c2ccccc2)c(C)c1`, the Potency is reported as active: 3.55 µM. For `O=C(Nc1nc(-c2ccccn2)cs1)c1cc(Cl)ccc1[N+](=O)[O-]`, the Potency was inconclusive: 39.8 µM [inhibitor, partial curve, poor fit]. For `COc1ccccc1CNC(=O)COC(=O)c1cccc(-n2cnnn2)c1`, the Potency was “inactive”. For `Cc1ccc(N2C(=O)CS(=O)C(c3ccccc3)C2=O)cc1C` (stereo unspecified), the Potency was inconclusive: 44.7 µM [inhibitor, single point]. With `COc1ccc(NN=Nc2nc3c([nH]2)c(=O)n(C)c(=O)n3C)cc1` the Potency was inconclusive: 15.8 µM [inhibitor, partial curve, poor fit]. In the case of `CCOc1ccc2c(c1)[nH]c(=S)n2C`, the Potency is reported as inconclusive: 31.6 µM [inhibitor, partial curve, poor fit]. `COc1cc(/C=N/N2CCCCC2)cc(OC)c1O` was tested, and the Potency was inconclusive: 50.1 µM [inhibitor, single point]. For `Cc1ccc(OCCc2csc(N)n2)cc1`, the Potency was “inactive”. `CC(=O)N1CCCc2cc(S(=O)(=O)N(C)CC(=O)Nc3ccc(Cl)cc3C)ccc21` was tested, and the Potency was “inactive”. `Nc1ccccc1N=c1ssnc1Cl` was tested, and the Potency was inconclusive: 28.2 µM [inhibitor, partial curve, poor fit]. `ClC(Cl)(c1nnnn1-c1ccccc1)c1nnnn1-c1ccccc1` was tested, and the Potency was inconclusive: 4.47 µM [inhibitor, full curve, poor fit]. `C/C(=N\NC(=O)COc1ccccc1-c1ccccc1)c1ccc(O)cc1O` was tested, and the Potency was “inactive”. For `O=C(CCCn1c(=S)[nH]c2ccsc2c1=O)NC1CCCCC1`, the Potency was inconclusive: 28.2 µM [inhibitor, partial curve]. `O=C(Nc1ccccc1)c1cc(C2CCCN(C(=O)C3CC3)C2)on1` (stereo unspecified) was tested, and the Potency was inconclusive: 35.5 µM [inhibitor, single point]. In the case of `CC(NC(=O)C(=O)Nc1c2c(nn1-c1ccc(F)cc1)CSC2)c1ccccc1` (stereo unspecified), the Potency is reported as “inactive”. In the case of `COCc1ccc([C@@H]2C[C@H]3CN(Cc4ccccc4C)C(=O)[C@]34CCCN24)o1`, the Potency is reported as “inactive”. In the case of `COc1ccc(-n2c(Cn3nnc4ccccc43)n[nH]c2=S)cc1`, the Potency is reported as inconclusive: 15.8 µM [inhibitor, partial curve, poor fit]. With `CCOC(=O)CSc1nc2ccc(NC(=O)c3ccccc3)cc2s1` the Potency was inconclusive: 28.2 µM [inhibitor, single point]. In the case of `CN(C(=O)CSc1nnc(NC2CCCCC2)s1)C1CCS(=O)(=O)C1` (stereo unspecified), the Potency is reported as “inactive”. `O=C(O)CSc1nnc(-c2cccs2)n1-c1ccc(Cl)cc1` was tested, and the Potency was inconclusive: 39.8 µM [inhibitor, single point]. In the case of `CC(c1n[nH]c(=S)n1-c1ccc(Cl)cc1)N(C)C` (stereo unspecified), the Potency is reported as inconclusive: 25.1 µM [inhibitor, partial curve, poor fit]. In the case of `CCOC(=O)/C(C#N)=C/c1cn(CCOc2ccc(OC)cc2)c2ccccc12`, the Potency is reported as “inactive”. In the case of `Cc1oc(-c2nc3ccccc3n2C)cc1C(=O)c1ccccc1`, the Potency is reported as active: 31.6 µM. With `Cc1nc(C)c(C(=O)Nc2cccc(Cl)c2)o1` the Potency was inconclusive: 31.6 µM [inhibitor, partial curve, poor fit]. With `CCOCCCNC(=S)NNC(=O)CCn1nc(C)c(Br)c1C` the Potency was inconclusive: 5.62 µM [inhibitor, full curve, poor fit]. `O=C(O)c1ccccc1SCc1cn2ccccc2n1` was tested, and the Potency was “inactive”. With `Cc1nc2ccc([N+](=O)[O-])cc2s1` the Potency was inconclusive: 31.6 µM [inhibitor, single point]. In the case of `CCOC(=O)c1ccc2c(c1)nc(-c1ccccn1)n2CC`, the Potency is reported as “inactive”. With `CCOC(=O)C1=C(C)N=c2s/c(=C/c3cccc([N+](=O)[O-])c3O)c(=O)n2C1c1cc(OC)c(OC)c(OC)c1` (stereo unspecified) the Potency was inconclusive: 28.2 µM [inhibitor, partial curve]. `c1ccc(OCc2nn3c(-c4ccco4)nnc3s2)cc1` was tested, and the Potency was inconclusive: 28.2 µM [inhibitor, single point]. For `O=C(NC(=S)Nc1ccc(Cc2ccncc2)cc1)c1ccc(F)cc1`, the Potency was “inactive”. With `CS/C(Nc1cc(Cl)ccc1Cl)=C(/C#N)C(=O)c1ccco1` the Potency was active: 31.6 µM. For `Cc1cc(C=C2C(=O)N(C)C(=S)N(C)C2=O)c(C)n1-c1cccnc1`, the Potency was inconclusive: 28.2 µM [inhibitor, partial curve, poor fit]. In the case of `COc1ccc(/C=C/C(=O)Nc2ccccc2)cc1S(=O)(=O)N1CCOCC1`, the Potency is reported as “inactive”. In the case of `C=C1C(=O)C23C(O)C1CCC2C12CCCC(C)(COC(C)=O)C1C(O)C3(O)OC2` (stereo unspecified), the Potency is reported as inconclusive: 17.8 µM [inhibitor, partial curve]. `Cc1cc(Br)ccc1NC(=O)CN(C)C(=O)Cn1c(=O)cnc2ccccc21` was tested, and the Potency was inconclusive: 28.2 µM [inhibitor, partial curve]. With `O=C(O)CCSc1nnc(SCC(=O)NC2CCS(=O)(=O)C2)s1` (stereo unspecified) the Potency was “inactive”. For `CCCCC(=O)NC(=S)NNC(=O)c1ccc(OC)cc1`, the Potency was inconclusive: 20 µM [inhibitor, partial curve, poor fit]. `COc1ccc(/C=N/n2c(COc3ccccc3)n[nH]c2=S)cc1OC` was tested, and the Potency was inconclusive: 7.08 µM [inhibitor, full curve, poor fit]. In the case of `Cc1ccc(S(=O)(=O)CCC(=O)c2cccc([N+](=O)[O-])c2)cc1`, the Potency is reported as inconclusive: 31.6 µM [inhibitor, partial curve, poor fit]. For `CCCCn1c(-c2cc(Cl)ccc2OC)n[nH]c1=S`, the Potency was inconclusive: 5.01 µM [inhibitor, partial curve]. `CCCC(=O)C1=C(O)C(C(=O)OC)C(C)(C)CC1=Nc1ccccc1` (stereo unspecified) was tested, and the Potency was “inactive”. `CC(C)NC(=S)n1cc(C(=O)c2cc(Cl)cc(Cl)c2O)cn1` was tested, and the Potency was “inactive”. In the case of `CCOc1ccc(NC(=O)CCS(=O)(=O)c2cccc3nonc23)cc1`, the Potency is reported as “inactive”. `O=C(c1ccc2c3n(nc2c1)-c1ccc(Cl)cc1CO3)N1CCCCC1` was tested, and the Potency was “inactive”. With `COc1cccc(NC(=O)N2CCCC2C(=O)Nc2cc(C)ccc2OC)c1` (stereo unspecified) the Potency was “inactive”. `O=c1c2ccccc2sn1-c1ccc(F)cc1` was tested, and the Potency was active: 8.91 µM. With `CCOC(=O)C1=C(C)Nc2nnnn2C1c1cccc(OC)c1OC` (stereo unspecified) the Potency was inconclusive: 50.1 µM [inhibitor, single point]. `O=C1NC(=O)N(c2ccc3c(c2)OCO3)C(=O)/C1=C/c1cccs1` was tested, and the Potency was inconclusive: 17.8 µM [inhibitor, partial curve]. With `N#Cc1c(/N=C/C2C(=O)NC(=S)NC2=O)sc2c1CCCC2` the Potency was inconclusive: 28.2 µM [inhibitor, partial curve, poor fit]. `O=C(Nc1ccccc1)Nc1ccc(C(=O)N2CCOCC2)cc1` was tested, and the Potency was inconclusive: 39.8 µM [inhibitor, partial curve, poor fit]. In the case of `S=c1[nH]nc(Cc2ccccc2)n1-c1ccc(Cl)cc1`, the Potency is reported as active: 2.82 µM. `Cc1ccc(NC(=O)Cc2nn(C)c(=O)c3ccccc23)cc1F` was tested, and the Potency was inconclusive: 35.5 µM [inhibitor, single point]. In the case of `O=C(CCc1nc2ccccc2s1)OCC(=O)c1ccccc1`, the Potency is reported as “inactive”. For `CN(C)c1ccc(NC(=O)Oc2ccccc2)cc1`, the Potency was inconclusive: 39.8 µM [inhibitor, partial curve, poor fit]. `NS(=O)(=O)c1ccc(O)c(NC(=O)c2ccc([N+](=O)[O-])o2)c1` was tested, and the Potency was inconclusive: 35.5 µM [inhibitor, partial curve, poor fit]. In the case of `O=C1CC=C2C3CC4N(CCC45c4cc(O)c(O)cc4N1C25)CC3=CCBr` (stereo unspecified), the Potency is reported as active: 2.82 µM. In the case of `CCSc1ccc(-c2cccc([N+](=O)[O-])c2)nn1`, the Potency is reported as “inactive”. For `O=c1[nH]c2ccc(Cl)cc2c(-c2ccccc2)c1SC(=S)N1CCOCC1`, the Potency was inconclusive: 8.91 µM [inhibitor, partial curve]. In the case of `COc1ccnc(CSC(N)=Nc2ccc(F)cc2)c1`, the Potency is reported as inconclusive: 25.1 µM [inhibitor, partial curve, poor fit]. With `C=CCN1C(=O)NC(=O)/C(=C/c2ccc(OCC(=O)Nc3ccc(C)cc3)cc2)C1=O` the Potency was inconclusive: 50.1 µM [inhibitor, single point]. In the case of `COc1ccccc1NS(=O)(=O)c1cc(C(=O)NCc2ccco2)ccc1C`, the Potency is reported as inconclusive: 44.7 µM [inhibitor, single point]. With `COc1ccc(CCNS(=O)(=O)c2cccc(C(=O)O)c2)cc1OC` the Potency was inconclusive: 28.2 µM [inhibitor, single point]. For `CCc1n[nH]c(=S)n1/N=C/c1c[nH]c2ccc(Br)cc12`, the Potency was inconclusive: 3.16 µM [inhibitor, full curve].
